In the supplement of paper PMC8728848:
The other results are listed elsewhere or left out.

Columns and labels:
Assay in all cases: glycan array binding signal (z-score within array); higher = stronger binding
Conditions in all cases: glycan notation: IUPAC condensed, linker removed
Gal(b1-3)Gal(b1-4)GlcNAc = target: Gal(b1-3)Gal(b1-4)GlcNAc
Procedure, shortened: (§1)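 Negative Z-scores can be read as non-binding. The Z-score is calculated within each array and then averaged across arrays of one protein sequence at different concentrations or buffers and across linkers. Arrays, 3228 in all, were curated from the Consortium for Functional Glycomics database and kept only where the protein sequence was available.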

[1] = target: Gal(b1-3)Gal(b1-4)GlcNAc(b1-2)Man(a1-3)[Gal(b1-3)Gal(b1-4)GlcNAc(b1-2)Man(a1-6)]Man(b1-4)GlcNAc(b1-4)GlcNAc
Procedure, shortened: as §1

Gal(b1-3)GalNAc = target: Gal(b1-3)GalNAc
Procedure, shortened: as §1

[2] = target: Gal(b1-3)GalNAc(a1-3)[Fuc(a1-2)]Gal(b1-4)Glc
Procedure, shortened: as §1

[3] = target: Gal(b1-3)GalNAc(a1-3)[Fuc(a1-2)]Gal(b1-4)GlcNAc
Procedure, shortened: as §1

[4] = target: Gal(b1-3)GalNAc(b1-3)Gal(a1-4)Gal(b1-4)Glc
Procedure, shortened: as §1

[5] = target: Gal(b1-3)GalNAc(b1-4)Gal(b1-4)Glc
Procedure, shortened: as §1

[6] = target: Gal(b1-3)GalNAc(b1-4)[Neu5Ac(a2-3)]Gal(b1-4)Glc
Procedure, shortened: as §1

Gal(b1-3)GlcNAc = target: Gal(b1-3)GlcNAc
Procedure, shortened: as §1

[7] = target: Gal(b1-3)GlcNAc(b1-2)Man(a1-3)[Gal(b1-3)GlcNAc(b1-2)Man(a1-6)]Man(b1-4)GlcNAc(b1-4)GlcNAc
Procedure, shortened: as §1

[8] = target: Gal(b1-3)GlcNAc(b1-2)Man(a1-3)[Gal(b1-3)GlcNAc(b1-2)Man(a1-6)]Man(b1-4)GlcNAc(b1-4)[Fuc(a1-6)]GlcNAc
Procedure, shortened: as §1

[9] = target: Gal(b1-3)GlcNAc(b1-3)Gal(b1-3)GlcNAc
Procedure, shortened: as §1

[10] = target: Gal(b1-3)GlcNAc(b1-3)Gal(b1-4)Glc
Procedure, shortened: as §1

[11] = target: Gal(b1-3)GlcNAc(b1-3)Gal(b1-4)GlcNAc
Procedure, shortened: as §1

[12] = target: Gal(b1-3)[Fuc(a1-4)]GlcNAc
Procedure, shortened: as §1

[13] = target: Gal(b1-3)[Fuc(a1-4)]GlcNAc(b1-2)Man(a1-3)[Gal(b1-3)[Fuc(a1-4)]GlcNAc(b1-2)Man(a1-6)]Man(b1-4)GlcNAc(b1-4)GlcNAc
Procedure, shortened: as §1

[14] = target: Gal(b1-3)[Fuc(a1-4)]GlcNAc(b1-2)Man(a1-3)[Gal(b1-3)[Fuc(a1-4)]GlcNAc(b1-2)Man(a1-6)]Man(b1-4)GlcNAc(b1-4)[Fuc(a1-6)]GlcNAc
Procedure, shortened: as §1

[15] = target: Gal(b1-3)[Fuc(a1-4)]GlcNAc(b1-3)Gal(b1-3)[Fuc(a1-4)]GlcNAc
Procedure, shortened: as §1

[16] = target: Gal(b1-3)[Fuc(a1-4)]GlcNAc(b1-3)Gal(b1-4)GlcNAc
Procedure, shortened: as §1

[17] = target: Gal(b1-3)[Fuc(a1-4)]GlcNAc(b1-3)Gal(b1-4)[Fuc(a1-3)]GlcNAc
Procedure, shortened: as §1

[18] = target: Gal(b1-3)[GlcNAc(b1-6)]GalNAc
Procedure, shortened: as §1

[19] = target: Gal(b1-3)[Neu5Ac(a2-6)]GalNAc
Procedure, shortened: as §1

[20] = target: Gal(b1-3)[Neu5Ac(a2-6)]GlcNAc(b1-6)Gal(b1-4)Glc
Procedure, shortened: as §1

[21] = target: Gal(b1-3)[Neu5Ac(b2-6)]GalNAc
Procedure, shortened: as §1

[22] = target: Gal(b1-4)GalNAc(a1-3)[Fuc(a1-2)]Gal(b1-4)GlcNAc
Procedure, shortened: as §1

[23] = target: Gal(b1-4)GalNAc(b1-3)[Fuc(a1-2)]Gal(b1-4)GlcNAc
Procedure, shortened: as §1

Gal(b1-4)Glc = target: Gal(b1-4)Glc
Procedure, shortened: as §1

Gal(b1-4)Glc6S = target: Gal(b1-4)Glc6S
Procedure, shortened: as §1

Gal(b1-4)GlcNAc = target: Gal(b1-4)GlcNAc
Procedure, shortened: as §1

[24] = target: Gal(b1-4)GlcNAc(a1-6)Gal(b1-4)GlcNAc
Procedure, shortened: as §1

[25] = target: Gal(b1-4)GlcNAc(b1-2)Man(a1-3)Man(b1-4)GlcNAc(b1-4)GlcNAc
Procedure, shortened: as §1

[26] = target: Gal(b1-4)GlcNAc(b1-2)Man(a1-3)[Gal(b1-4)GlcNAc(b1-2)Man(a1-6)]Man(b1-4)GlcNAc(b1-4)GlcNAc
Procedure, shortened: as §1

[27] = target: Gal(b1-4)GlcNAc(b1-2)Man(a1-3)[Gal(b1-4)GlcNAc(b1-2)Man(a1-6)]Man(b1-4)GlcNAc(b1-4)[Fuc(a1-6)]GlcNAc
Procedure, shortened: as §1

[28] = target: Gal(b1-4)GlcNAc(b1-2)Man(a1-3)[Man(a1-6)]Man(b1-4)GlcNAc(b1-4)GlcNAc
Procedure, shortened: as §1

[29] = target: Gal(b1-4)GlcNAc(b1-2)Man(a1-6)Man(b1-4)GlcNAc(b1-4)GlcNAc
Procedure, shortened: as §1

[30] = target: Gal(b1-4)GlcNAc(b1-2)Man(a1-6)[Man(a1-3)]Man(b1-4)GlcNAc(b1-4)GlcNAc
Procedure, shortened: as §1

[31] = target: Gal(b1-4)GlcNAc(b1-2)[Gal(b1-4)GlcNAc(b1-4)]Man(a1-3)[Gal(b1-4)GlcNAc(b1-2)Man(a1-6)]Man(b1-4)GlcNAc(b1-4)GlcNAc
Procedure, shortened: as §1

[32] = target: Gal(b1-4)GlcNAc(b1-3)Gal(b1-3)GlcNAc
Procedure, shortened: as §1

[33] = target: Gal(b1-4)GlcNAc(b1-3)Gal(b1-4)Glc
Procedure, shortened: as §1

[34] = target: Gal(b1-4)GlcNAc(b1-3)Gal(b1-4)GlcNAc
Procedure, shortened: as §1

[35] = target: Gal(b1-4)GlcNAc(b1-3)Gal(b1-4)GlcNAc(b1-3)Gal(b1-4)GlcNAc
Procedure, shortened: as §1

[36] = target: Gal(b1-4)GlcNAc(b1-3)Gal(b1-4)[Fuc(a1-3)]GlcNAc(b1-3)Gal(b1-4)[Fuc(a1-3)]GlcNAc
Procedure, shortened: as §1

[37] = target: Gal(b1-4)GlcNAc(b1-3)GalNAc
Procedure, shortened: as §1

[38] = target: Gal(b1-4)GlcNAc(b1-3)[Gal(b1-4)GlcNAc(b1-6)]Gal(b1-4)GlcNAc
Procedure, shortened: as §1

[39] = target: Gal(b1-4)GlcNAc(b1-3)[GlcNAc(b1-6)]Gal(b1-4)GlcNAc
Procedure, shortened: as §1

Q: Which results are given for GIINTLQKYYCRVRGGRCAVLSCLPKEEQIGKCSTRGRKCCRRKK [Beta-Defensin 3 (Homo sapiens), P81534]?
A: glycan array binding signal (z-score) (Gal(b1-3)Gal(b1-4)GlcNAc): -0.281; glycan array binding signal (z-score) [1]: -0.659; glycan array binding signal (z-score) (Gal(b1-3)GalNAc): 0.052; glycan array binding signal (z-score) [2]: -0.292; glycan array binding signal (z-score) [3]: -0.234; glycan array binding signal (z-score) [4]: -0.464; glycan array binding signal (z-score) [5]: -0.315; glycan array binding signal (z-score) [6]: -0.33; glycan array binding signal (z-score) (Gal(b1-3)GlcNAc): -0.245; glycan array binding signal (z-score) [7]: -0.507; glycan array binding signal (z-score) [8]: -0.62; glycan array binding signal (z-score) [9]: -0.29; glycan array binding signal (z-score) [10]: -0.348; glycan array binding signal (z-score) [11]: -0.455; glycan array binding signal (z-score) [12]: -0.042; glycan array binding signal (z-score) [13]: -0.319; glycan array binding signal (z-score) [14]: -0.661; glycan array binding signal (z-score) [15]: -0.457; glycan array binding signal (z-score) [16]: -0.493; glycan array binding signal (z-score) [17]: -0.287; glycan array binding signal (z-score) [18]: -0.46; glycan array binding signal (z-score) [19]: 0.272; glycan array binding signal (z-score) [20]: -0.543; glycan array binding signal (z-score) [21]: 0.323; glycan array binding signal (z-score) [22]: -0.395; glycan array binding signal (z-score) [23]: -0.359; glycan array binding signal (z-score) (Gal(b1-4)Glc): 0.122; glycan array binding signal (z-score) (Gal(b1-4)Glc6S): 0.789; glycan array binding signal (z-score) (Gal(b1-4)GlcNAc): -0.279; glycan array binding signal (z-score) [24]: -0.57; glycan array binding signal (z-score) [25]: -0.408; glycan array binding signal (z-score) [26]: -0.62; glycan array binding signal (z-score) [27]: -0.692; glycan array binding signal (z-score) [28]: -0.423; glycan array binding signal (z-score) [29]: -0.517; glycan array binding signal (z-score) [30]: -0.346; glycan array binding signal (z-score) [31]: -0.572; glycan array binding signal (z-score) [32]: -0.467; glycan array binding signal (z-score) [33]: -0.43; glycan array binding signal (z-score) [34]: -0.53; glycan array binding signal (z-score) [35]: -0.59; glycan array binding signal (z-score) [36]: -0.477; glycan array binding signal (z-score) [37]: -0.215; glycan array binding signal (z-score) [38]: -0.621; glycan array binding signal (z-score) [39]: -0.661
